± gives the standard deviation of the averaged measurements. This is one part of the list.
test system: PfAP2-EXP AP2 domain (GST-tagged); assay: gcPBM binding intensity (ln(normalized median fluorescence intensity)); higher = stronger DNA binding
Procedure, shortened: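 Binding intensity is defined as the maximum Masliner-normalised natural-log median intensity across replicate spots for either probe orientation. It was measured on an Agilent 4 × 180k array of primer-extended double-stranded 36-bp intergenic genomic probes and negative controls, to which GST-tagged P. falciparum DNA-binding domains made in E. coli were applied for 1 h in 1× PBS with 1% milk, 0.2 mg/ml BSA, 0.5% salmon testes DNA and 0.03% Triton X-100. Detection was by Alexa488 anti-GST antibody and scanning at 488 nm.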

Going from “ACAAAATTTTTAAGAACACACAAAAATGTACTATCG [CACACA_site2550]” to “GAAAGGACAAGAATAGTGCACATGCAATGTTATTTT [GTGCAC_site9985]”, the “gcPBM binding intensity (ln)” value rises from 8.42 ± 0.34 to 9.17 ± 0.23.

“AAAAAAAAAAAACATACACACATACATACATATATA [CACACA_site8222]” and “CACATACACATACAAACACACATTATGTATATATAT [CACACA_site1599]” are within error of each other in “gcPBM binding intensity (ln)” value: 8.48 ± 0.4 for the first, 8.62 ± 0.13 for the second.

“ATATATACAACTAAAGAACACACATCATTGTTCATT [CACACA_site9224]” and “AAACAATTTTTTAAAAGTACTTGAAAATTGTGAAAT [XGTACX_site2461]” are within error of each other in “gcPBM binding intensity (ln)” value: 8.48 ± 0.41 for the first, 8.74 ± 0.37 for the second.

AAAAAAATAACAAAAGTGCATTTTTATGAGTTATCT and “ATATATAATTAATAAAGTACATTAATTATTTCTTTT [XGTACX_site3034]” are within error of each other in “gcPBM binding intensity (ln)” value: 8.49 ± 0.33 for the first, 8.465 ± 0.078 for the second.

“AGATACAAGCACTATAGTACACATACTAAAAATATA [XGTACX_site5849]” and “TATAATTAAAATTTGTGTACGTATGACAAAACATTT [XGTACX_site7072]” are within error of each other in “gcPBM binding intensity (ln)” value: 8.68 ± 0.46 for the first, 8.52 ± 0.31 for the second.

“TTTCCTTACCCTTTCCTGGTGTAGAAATTATACTCT [TGCATGCA_negctrl_site116]” and “AATATATTATATATATGTACATAATGTGTAATACCT [XGTACX_site2845]” are within error of each other in “gcPBM binding intensity (ln)” value: 8.72 ± 0.41 for the first, 8.71 ± 0.36 for the second.

“TTAAAATTTTTCAAAAGTACATAAATAATATATATT [XGTACX_site4694]” and “AAAAAAAATTCATATTGTACTTTTAAATTAAAGAAA [XGTACX_site4521]” are within error of each other in “gcPBM binding intensity (ln)” value: 8.47 ± 0.49 for the first, 8.15 ± 0.12 for the second.

“GGAAAAAAATATAAAAGTACTTTTTATTTATTTTAT [XGTACX_site7418]” and “TTTTTTTTTGTTAAAGTGCATATATTAAATTTTCCT [GTGCAC_site9677]” are within error of each other in “gcPBM binding intensity (ln)” value: 8.36 ± 0.21 for the first, 8.51 ± 0.35 for the second.

“TTTATTTGTTCATGCGTGCACTTGATAACAATGTAC [GTGCAC_site9561]” and “CGTTATATCAAAGGAGTGCATTATGAATACGTTTTA [GTGCAC_site9837]” are within error of each other in “gcPBM binding intensity (ln)” value: 8.945 ± 0.078 for the first, 8.77 ± 0.16 for the second.

“AGTGAATATCTAAAATGTACATAAATAAATAAATAA [XGTACX_site8293]” and “AAAAAAAAAAAACATACACACATACATACAGATATA [CACACA_site4681]” are within error of each other in “gcPBM binding intensity (ln)” value: 8.82 ± 0.38 for the first, 8.5 ± 0.64 for the second.

“TTCTATTTTATATGTGCACACATATACACCCACAAA [CACACA_site1130]” and “TTCTTTTTGAAACACACACACACAAGAAAATATATA [CACACA_site3110]” are within error of each other in “gcPBM binding intensity (ln)” value: 9.26 ± 0.23 for the first, 8.88 ± 0.48 for the second.

“TTTCACTACACAAATACACACAAAAATATATGTGCA [CACACA_site2632]” and “AAATTTTTTGTTCAATGTACTTTTTTATTATATTTT [XGTACX_site5298]” are within error of each other in “gcPBM binding intensity (ln)” value: 8.39 ± 0.42 for the first, 8.64 ± 0.4 for the second.

“TCTACTATTATATATTGTACAAATGATACTTATATT [XGTACX_site1819]” and “GATATATAATATAATACACACATTTTATGAATGTAA [CACACA_site24]” are within error of each other in “gcPBM binding intensity (ln)” value: 8.62 ± 0.36 for the first, 8.09 ± 0.23 for the second.

“ATTTTTTAAATTTAAACACACATTTTGTATATGTTT [CACACA_site1654]” and “AAATTTTATAAAGGAACACACATTTTTTTTTTTTCT [CACACA_site2368]” are within error of each other in “gcPBM binding intensity (ln)” value: 8.71 ± 0.4 for the first, 8.17 ± 0.35 for the second.

“GAAATAATTTTTATTTGTACACACATACATATATAT [XGTACX_site1862]” and “TTATTCATTTCGAAAAGTACAAATTCTGTTTATTAT [XGTACX_site6892]” are within error of each other in “gcPBM binding intensity (ln)” value: 8.76 ± 0.19 for the first, 8.52 ± 0.43 for the second.

“CCACTAATTATGTGCACACAAATTAAAGGTCTACAA [CACACA_site4259]” and “TTTTGTCGGAAATCGGATAAGAAGAAAAAAAATAAT [GTGCAC_negctrl_site594]” are within error of each other in “gcPBM binding intensity (ln)” value: 8.74 ± 0.12 for the first, 8.81 ± 0.47 for the second.

“TTCACTCCATATTATACACACACACTAATGAAAAAA [CACACA_site8991]” and “AAAAAAAAAAAAAGTACACACATACATATAAATATA [CACACA_site8533]” are within error of each other in “gcPBM binding intensity (ln)” value: 8.73 ± 0.48 for the first, 8.48 ± 0.4 for the second.

Compared with AAAAAAAAAAAATACGTGCACTATGATATATTATAT, “ATAATATTTATAAATTGTACTAATGTTCAATAATTA [XGTACX_site7284]” is lower in “gcPBM binding intensity (ln)” value: 8.95 ± 0.092 for the first, 8.34 ± 0.35 for the second.

“ATATTGACAGGAAAAATTTTCTTTGAATCTTTAAAA [CACACA_negctrl_site1191]” and “AAATGAAAAATAAGGAAAAAAAAAAAAAAAAAAAAA [CACACA_negctrl_site1715]” are within error of each other in “gcPBM binding intensity (ln)” value: 8.2 ± 0.52 for the first, 8.09 ± 0.49 for the second.

Compared with “TAAAATATTTCAAAGGTGCAATGATAATTTAAGACG [GTGCAC_site9609]”, “ACAAAAAAAATAAGCACACATATATATATATATATA [CACACA_site816]” is higher in “gcPBM binding intensity (ln)” value: 8.8 ± 0.24 for the first, 10.2 ± 0.6 for the second.

Going from “TATGTTATATTGGACACACACAATAAACATTATGTA [CACACA_site1657]” to “ATATATATATATAAGCGTACGCGTAGTTAAATTAAT [XGTACX_site7693]”, the “gcPBM binding intensity (ln)” value rises from 8.37 ± 0.33 to 10 ± 0.38.

“TTTTCAAAAATATATACACACATGCATATTACGGTG [CACACA_site775]” and “TACATGATAAGATGTAGTACATAAAAGAATAAATTA [XGTACX_site787]” are within error of each other in “gcPBM binding intensity (ln)” value: 8.79 ± 0.46 for the first, 8.71 ± 0.26 for the second.

“ACGATAACATTTTTACGTACATATATTTTCACGGAG [XGTACX_site8764]” and “TATTCAATACTTAATGCACACAATAAAAAAAATATG [CACACA_site2467]” are within error of each other in “gcPBM binding intensity (ln)” value: 8.8 ± 0.36 for the first, 8.87 ± 0.014 for the second.

“AATATATTTAATGAGTGTACATTATTTATTATTATT [XGTACX_site6889]” and “AAATAAAAAAAATAAAAGCAATCATAATAAAAATCT [CACACA_negctrl_site161]” are within error of each other in “gcPBM binding intensity (ln)” value: 8.39 ± 0.36 for the first, 8.46 ± 0.38 for the second.

“AATTTATATTAAAATTGTACATTTCTTCTATAATAC [XGTACX_site8639]” and “TGTATGTATTTGTGTAGTACGCATAAGTAATAAAAC [XGTACX_site6704]” are within error of each other in “gcPBM binding intensity (ln)” value: 8.45 ± 0.42 for the first, 9.12 ± 0.36 for the second.

“TACCAAAAGAAACACACACACAAAATATATAAATAT [CACACA_site1869]” and “TCCCATATATATATATATATATATATATATAATAAT [TGCATGCA_negctrl_site41]” are within error of each other in “gcPBM binding intensity (ln)” value: 8.61 ± 0.54 for the first, 8.885 ± 0.049 for the second.

“TTTGGCTAGTCAAGTTGTACAAAAAAAAAAAAAAAA [XGTACX_site8382]” and “ATACTTTTAATATGCACATGCAAATATGAAATATCG [TGCATGCA_site603]” are within error of each other in “gcPBM binding intensity (ln)” value: 8.23 ± 0.51 for the first, 8.74 ± 0.085 for the second.

“AAATATATATAAGCGTGTACACATTCTGAGTGTTGT [XGTACX_site1088]” and “TATCGTTTTATTCGGTTGCACCAAAAAAATAAAATA [GTGCAC_site9408]” are within error of each other in “gcPBM binding intensity (ln)” value: 8.88 ± 0.3 for the first, 8.32 ± 0.4 for the second.

With “ATAATAAAAATAAAATGTACATACATAAATATATAT [XGTACX_site6228]” the “gcPBM binding intensity (ln)” value was 8.62 ± 0.28.

From the supplement of paper PMC11417369
